Among the data in the supplement of paper PMC12230231 are enrichment values, retold here.

± gives the standard deviation of the averaged measurements. Restriction of a single-cycle SIVsab GFP reporter by TRIM5α v1-loop variants in CRFK cells. Human variants: read share among cells still uninfected after two challenges over input, higher = gained restriction. Rhesus variants: share among infected cells over input, higher = lost restriction. Reporter dose not given per row. No active / inactive call per row; the paper calls a change when both replicates lie above its controls (mean + 2 SD of stop or wild-type variants, or the top frameshift score). Residues outside the varied loop are taken from Swiss-Prot. The paper reads the human single-substitution scores as noise; they and the rhesus combinations repeat poorly (rank correlation 0.3 to 0.4), indel scores repeat only for the top variants, rhesus substitutions well (0.9).

The first data set has as its system SIVsab (simian immunodeficiency virus of sabaeus monkeys), single-cycle GFP reporter, in CRFK cells. Put plainly: enrichment among uninfected cells over input (fold); higher = stronger restriction. The settings on record: library: human / rhesus combinations. As for the experimental part:
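Pools of CRFK cells expressing variants of the TRIM5α v1 loop were challenged with the single-cycle reporter, sorted by GFP and sequenced; mean of two replicates.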
On to “MASGILVNVKEEVTCPICLELLTQPLSLDCGHSFCQACLTANHKKSMLDKGESSCPVCRISYQPENIRPNRHVANIVEKLREVKLSPEGQKVDHCARHGEKLLLFCQEDGKVICWLCERSQEHRGHHTFLTEEVAREYQVKLQAALEMLRQKQQEAEELEADIREEKASWKTQIQYDKTNVLADFEQLRDILDWEESNELQNLEKEEEDILKSLTNSETEMVQQTQSLRELISDLEHRLQGSVMELLQGVDGVIKRTENVTLKKPETFPKNQRRVFRAPDLKGMLEVFRELTDVRRYWVDVTVAPNNISCAVISEDKRQVSSPKPQIIYQARGTRYTFPTLVNFNYCTGILGSQSITSGKHYWEVDVSKKTAWILGVCAGFQPDAMCNIEKNENYQPKYGYWVIGLEEGVKCSAFQDSSFHTPSVPFIVPLSVIICPDRVGVFLDYEACTVSFFNITNHGFLIYKFSHCSFSQPVFPYLNPRKCGVPMTLCSPSS [human TRIM5α, 330-340 = QARGTRYTFPTLV]”, for which the enrichment stood at 0.143 ± 0.2.

As to “MASGILVNVKEEVTCPICLELLTQPLSLDCGHSFCQACLTANHKKSMLDKGESSCPVCRISYQPENIRPNRHVANIVEKLREVKLSPEGQKVDHCARHGEKLLLFCQEDGKVICWLCERSQEHRGHHTFLTEEVAREYQVKLQAALEMLRQKQQEAEELEADIREEKASWKTQIQYDKTNVLADFEQLRDILDWEESNELQNLEKEEEDILKSLTNSETEMVQQTQSLRELISDLEHRLQGSVMELLQGVDGVIKRTENVTLKKPETFPKNQRRVFRAPDLKGMLEVFRELTDVRRYWVDVTVAPNNISCAVISEDKRQVSSPKPQIIYQARGTRYTFQSFTNFNYCTGILGSQSITSGKHYWEVDVSKKTAWILGVCAGFQPDAMCNIEKNENYQPKYGYWVIGLEEGVKCSAFQDSSFHTPSVPFIVPLSVIICPDRVGVFLDYEACTVSFFNITNHGFLIYKFSHCSFSQPVFPYLNPRKCGVPMTLCSPSS [human TRIM5α, 330-340 = QARGTRYTFQSFT]”, the enrichment came out at 0.233 ± 0.083.

“MASGILVNVKEEVTCPICLELLTQPLSLDCGHSFCQACLTANHKKSMLDKGESSCPVCRISYQPENIRPNRHVANIVEKLREVKLSPEGQKVDHCARHGEKLLLFCQEDGKVICWLCERSQEHRGHHTFLTEEVAREYQVKLQAALEMLRQKQQEAEELEADIREEKASWKTQIQYDKTNVLADFEQLRDILDWEESNELQNLEKEEEDILKSLTNSETEMVQQTQSLRELISDLEHRLQGSVMELLQGVDGVIKRTENVTLKKPETFPKNQRRVFRAPDLKGMLEVFRELTDVRRYWVDVTVAPNNISCAVISEDKRQVSSPKPQIIYQARGTRYTFQSFVNFNYCTGILGSQSITSGKHYWEVDVSKKTAWILGVCAGFQPDAMCNIEKNENYQPKYGYWVIGLEEGVKCSAFQDSSFHTPSVPFIVPLSVIICPDRVGVFLDYEACTVSFFNITNHGFLIYKFSHCSFSQPVFPYLNPRKCGVPMTLCSPSS [human TRIM5α, 330-340 = QARGTRYTFQSFV]”: the enrichment was 0.478 ± 0.036.

Regarding “MASGILVNVKEEVTCPICLELLTQPLSLDCGHSFCQACLTANHKKSMLDKGESSCPVCRISYQPENIRPNRHVANIVEKLREVKLSPEGQKVDHCARHGEKLLLFCQEDGKVICWLCERSQEHRGHHTFLTEEVAREYQVKLQAALEMLRQKQQEAEELEADIREEKASWKTQIQYDKTNVLADFEQLRDILDWEESNELQNLEKEEEDILKSLTNSETEMVQQTQSLRELISDLEHRLQGSVMELLQGVDGVIKRTENVTLKKPETFPKNQRRVFRAPDLKGMLEVFRELTDVRRYWVDVTVAPNNISCAVISEDKRQVSSPKPQIIYQARGTRYTFQSLTNFNYCTGILGSQSITSGKHYWEVDVSKKTAWILGVCAGFQPDAMCNIEKNENYQPKYGYWVIGLEEGVKCSAFQDSSFHTPSVPFIVPLSVIICPDRVGVFLDYEACTVSFFNITNHGFLIYKFSHCSFSQPVFPYLNPRKCGVPMTLCSPSS [human TRIM5α, 330-340 = QARGTRYTFQSLT]”, the enrichment stood at 0.0806 ± 0.051.

As to “MASGILVNVKEEVTCPICLELLTQPLSLDCGHSFCQACLTANHKKSMLDKGESSCPVCRISYQPENIRPNRHVANIVEKLREVKLSPEGQKVDHCARHGEKLLLFCQEDGKVICWLCERSQEHRGHHTFLTEEVAREYQVKLQAALEMLRQKQQEAEELEADIREEKASWKTQIQYDKTNVLADFEQLRDILDWEESNELQNLEKEEEDILKSLTNSETEMVQQTQSLRELISDLEHRLQGSVMELLQGVDGVIKRTENVTLKKPETFPKNQRRVFRAPDLKGMLEVFRELTDVRRYWVDVTVAPNNISCAVISEDKRQVSSPKPQIIYQARGTRYTFQSLVNFNYCTGILGSQSITSGKHYWEVDVSKKTAWILGVCAGFQPDAMCNIEKNENYQPKYGYWVIGLEEGVKCSAFQDSSFHTPSVPFIVPLSVIICPDRVGVFLDYEACTVSFFNITNHGFLIYKFSHCSFSQPVFPYLNPRKCGVPMTLCSPSS [human TRIM5α, 330-340 = QARGTRYTFQSLV]”, the enrichment came out at 0.55 ± 0.035.

In the case of “MASGILVNVKEEVTCPICLELLTQPLSLDCGHSFCQACLTANHKKSMLDKGESSCPVCRISYQPENIRPNRHVANIVEKLREVKLSPEGQKVDHCARHGEKLLLFCQEDGKVICWLCERSQEHRGHHTFLTEEVAREYQVKLQAALEMLRQKQQEAEELEADIREEKASWKTQIQYDKTNVLADFEQLRDILDWEESNELQNLEKEEEDILKSLTNSETEMVQQTQSLRELISDLEHRLQGSVMELLQGVDGVIKRTENVTLKKPETFPKNQRRVFRAPDLKGMLEVFRELTDVRRYWVDVTVAPNNISCAVISEDKRQVSSPKPQIIYQARGTRYTFQTFTNFNYCTGILGSQSITSGKHYWEVDVSKKTAWILGVCAGFQPDAMCNIEKNENYQPKYGYWVIGLEEGVKCSAFQDSSFHTPSVPFIVPLSVIICPDRVGVFLDYEACTVSFFNITNHGFLIYKFSHCSFSQPVFPYLNPRKCGVPMTLCSPSS [human TRIM5α, 330-340 = QARGTRYTFQTFT]”, the enrichment came out at 0.138 ± 0.038.

Regarding “MASGILVNVKEEVTCPICLELLTQPLSLDCGHSFCQACLTANHKKSMLDKGESSCPVCRISYQPENIRPNRHVANIVEKLREVKLSPEGQKVDHCARHGEKLLLFCQEDGKVICWLCERSQEHRGHHTFLTEEVAREYQVKLQAALEMLRQKQQEAEELEADIREEKASWKTQIQYDKTNVLADFEQLRDILDWEESNELQNLEKEEEDILKSLTNSETEMVQQTQSLRELISDLEHRLQGSVMELLQGVDGVIKRTENVTLKKPETFPKNQRRVFRAPDLKGMLEVFRELTDVRRYWVDVTVAPNNISCAVISEDKRQVSSPKPQIIYQARGTRYTFQTFVNFNYCTGILGSQSITSGKHYWEVDVSKKTAWILGVCAGFQPDAMCNIEKNENYQPKYGYWVIGLEEGVKCSAFQDSSFHTPSVPFIVPLSVIICPDRVGVFLDYEACTVSFFNITNHGFLIYKFSHCSFSQPVFPYLNPRKCGVPMTLCSPSS [human TRIM5α, 330-340 = QARGTRYTFQTFV]”, the enrichment came to 1 ± 0.44.

Take “MASGILVNVKEEVTCPICLELLTQPLSLDCGHSFCQACLTANHKKSMLDKGESSCPVCRISYQPENIRPNRHVANIVEKLREVKLSPEGQKVDHCARHGEKLLLFCQEDGKVICWLCERSQEHRGHHTFLTEEVAREYQVKLQAALEMLRQKQQEAEELEADIREEKASWKTQIQYDKTNVLADFEQLRDILDWEESNELQNLEKEEEDILKSLTNSETEMVQQTQSLRELISDLEHRLQGSVMELLQGVDGVIKRTENVTLKKPETFPKNQRRVFRAPDLKGMLEVFRELTDVRRYWVDVTVAPNNISCAVISEDKRQVSSPKPQIIYQARGTRYTFQTLTNFNYCTGILGSQSITSGKHYWEVDVSKKTAWILGVCAGFQPDAMCNIEKNENYQPKYGYWVIGLEEGVKCSAFQDSSFHTPSVPFIVPLSVIICPDRVGVFLDYEACTVSFFNITNHGFLIYKFSHCSFSQPVFPYLNPRKCGVPMTLCSPSS [human TRIM5α, 330-340 = QARGTRYTFQTLT]”: the enrichment came to 0.205 ± 0.12.

Regarding “MASGILVNVKEEVTCPICLELLTQPLSLDCGHSFCQACLTANHKKSMLDKGESSCPVCRISYQPENIRPNRHVANIVEKLREVKLSPEGQKVDHCARHGEKLLLFCQEDGKVICWLCERSQEHRGHHTFLTEEVAREYQVKLQAALEMLRQKQQEAEELEADIREEKASWKTQIQYDKTNVLADFEQLRDILDWEESNELQNLEKEEEDILKSLTNSETEMVQQTQSLRELISDLEHRLQGSVMELLQGVDGVIKRTENVTLKKPETFPKNQRRVFRAPDLKGMLEVFRELTDVRRYWVDVTVAPNNISCAVISEDKRQVSSPKPQIIYQARGTRYTFQTLVNFNYCTGILGSQSITSGKHYWEVDVSKKTAWILGVCAGFQPDAMCNIEKNENYQPKYGYWVIGLEEGVKCSAFQDSSFHTPSVPFIVPLSVIICPDRVGVFLDYEACTVSFFNITNHGFLIYKFSHCSFSQPVFPYLNPRKCGVPMTLCSPSS [human TRIM5α, 330-340 = QARGTRYTFQTLV]”, the enrichment amounted to 0.203 ± 0.01.

Staying with this data set, now noted: library: insertions and deletions.
The sequence “MASGILVNVKEEVTCPICLELLTQPLSLDCGHSFCQACLTANHKKSMLDKGESSCPVCRISYQPENIRPNRHVANIVEKLREVKLSPEGQKVDHCARHGEKLLLFCQEDGKVICWLCERSQEHRGHHTFLTEEVAREYQVKLQAALEMLRQKQQEAEELEADIREEKASWKTQIQYDKTNVLADFEQLRDILDWEESNELQNLEKEEEDILKSLTNSETEMVQQTQSLRELISDLEHRLQGSVMELLQGVDGVIKRTENVTLKKPETFPKNQRRVFRAPDLKGMLEVFRELTDVRRYWVDVTVAPNNISCAVISEDKRQVSSPKPQIIYQIIYGARGTRYQTFVNFNYCTGILGSQSITSGKHYWEVDVSKKTAWILGVCAGFQPDAMCNIEKNENYQPKYGYWVIGLEEGVKCSAFQDSSFHTPSVPFIVPLSVIICPDRVGVFLDYEACTVSFFNITNHGFLIYKFSHCSFSQPVFPYLNPRKCGVPMTLCSPSS [human TRIM5α, 4-codon duplication at 326]” displayed an enrichment of 0.205 ± 0.048.

The sequence “MASGILVNVKEEVTCPICLELLTQPLSLDCGHSFCQACLTANHKKSMLDKGESSCPVCRISYQPENIRPNRHVANIVEKLREVKLSPEGQKVDHCARHGEKLLLFCQEDGKVICWLCERSQEHRGHHTFLTEEVAREYQVKLQAALEMLRQKQQEAEELEADIREEKASWKTQIQYDKTNVLADFEQLRDILDWEESNELQNLEKEEEDILKSLTNSETEMVQQTQSLRELISDLEHRLQGSVMELLQGVDGVIKRTENVTLKKPETFPKNQRRVFRAPDLKGMLEVFRELTDVRRYWVDVTVAPNNISCAVISEDKRQVSSPKPQIIYQTFVNFNYCTGILGSQSITSGKHYWEVDVSKKTAWILGVCAGFQPDAMCNIEKNENYQPKYGYWVIGLEEGVKCSAFQDSSFHTPSVPFIVPLSVIICPDRVGVFLDYEACTVSFFNITNHGFLIYKFSHCSFSQPVFPYLNPRKCGVPMTLCSPSS [human TRIM5α, 7-codon deletion at 329]” displayed an enrichment of 1.43 ± 1.1.

For the sequence “MASGILVNVKEEVTCPICLELLTQPLSLDCGHSFCQACLTANHKKSMLDKGESSCPVCRISYQPENIRPNRHVANIVEKLREVKLSPEGQKVDHCARHGEKLLLFCQEDGKVICWLCERSQEHRGHHTFLTEEVAREYQVKLQAALEMLRQKQQEAEELEADIREEKASWKTQIQYDKTNVLADFEQLRDILDWEESNELQNLEKEEEDILKSLTNSETEMVQQTQSLRELISDLEHRLQGSVMELLQGVDGVIKRTENVTLKKPETFPKNQRRVFRAPDLKGMLEVFRELTDVRRYWVDVTVAPNNISCAVISEDKRQVSSPKPQIIYQTFVNFNYCTGILGSQSITSGKHYWEVDVSKKTAWILGVCAGFQPDAMCNIEKNENYQPKYGYWVIGLEEGVKCSAFQDSSFHTPSVPFIVPLSVIICPDRVGVFLDYEACTVSFFNITNHGFLIYKFSHCSFSQPVFPYLNPRKCGVPMTLCSPSS [human TRIM5α, 7-codon deletion at 330]”, the enrichment turned out to be 0.685 ± 0.13.
